Sequences and labels used below:
T1: TRAF2, Q12933
T1 chain: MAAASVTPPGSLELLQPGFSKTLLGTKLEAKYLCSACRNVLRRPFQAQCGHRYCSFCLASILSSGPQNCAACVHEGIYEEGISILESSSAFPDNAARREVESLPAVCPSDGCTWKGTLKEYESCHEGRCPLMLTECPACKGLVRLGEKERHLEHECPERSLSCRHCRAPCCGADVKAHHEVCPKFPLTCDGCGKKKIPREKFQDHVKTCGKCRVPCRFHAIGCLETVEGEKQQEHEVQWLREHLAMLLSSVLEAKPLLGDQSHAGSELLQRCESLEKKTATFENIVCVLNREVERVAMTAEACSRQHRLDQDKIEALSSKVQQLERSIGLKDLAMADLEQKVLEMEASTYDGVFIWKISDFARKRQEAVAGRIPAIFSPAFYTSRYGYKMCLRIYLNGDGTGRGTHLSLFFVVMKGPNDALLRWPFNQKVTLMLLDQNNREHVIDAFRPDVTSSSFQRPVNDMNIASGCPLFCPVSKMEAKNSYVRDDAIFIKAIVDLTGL

B1: traf2_out_20_3_2217 (protein)
chain: EELKERIRRELERIRELLERARPLLPAEDYERLRRLLEEAEEALETDLTDALVKLSELRRLALRLAQEARAAGNAELAALLEEMAERANRAAGLVLKAIE
B2: traf2_out_8_144_2536 (protein)
chain: MLTRRELANRLANILVEIDELIEKADPETKKVLTEARRHVGQALNLVVFGGPREEILKELEKAAKKLKEAIKLVADDPELKAKAEAALKEVEAIIKDVKK
B3: traf2_out_13_95_1049 (protein)
chain: SAETAKKIMEVADEMEEKALKLLEEAKAKVADDPAASAVMDEALDLAEKRGISEAIHLLRQAQAADPAHKAEFDALIKELEKLRKEAGKKVAEILKEEKE
B4: traf2_out_17_162_1562 (protein)
chain: SALEKRWEELKKRLEELKKRVEELKEKLKNLENMSPEEIRDLLVEASEVKREARRLAEEAKKLKEEIGEEEAQKLIDEANEIAEEAQRIANKLYKALLEK
B5: traf2_out_20_3_2203 (protein)
chain: EELLKELEKELEEALKLLKKARELADPETAKRLEELIKRLKASRELSLDDRLVVLSEIRAEVLRLAQEARARGDEELAAVLEEAADKLQRAMNLVYKLIE
B6: traf2_out_6_3_2531 (protein)
chain: DRESLLADARKVLENMGITTAAELQRLVEAEVRAIRQLISRPDVDRADLAGARSVIALARAMVEVAAETLPDFTPEQQARLQALLAEAEELVRRREEELA
B7: traf2_out_1_15_927 (protein)
chain: SSEEVKKEAEKLVKEAKEALEEAKANPDDKELLKEKLKKLEELKRKLIDLLNKTENDKETTNHVINALLEVEAYLAKVKALAYPEKKAAYEAKAKLWEEA
B8: traf2_out_17_178_1695 (protein)
chain: SKEEIRAKISELTDELIDLTDYYGTKLLEMVKKEGVLTPEEIAKLEAALKSGSNRTFLETAKEIIPKSNASEEIKELLKEFEKKYKELSKKIAEAYKEYE
B9: traf2_out_18_117_1798 (protein)
chain: SALEKAKEEFEKEAERFEEELREAQRVATQLIEKYPKQLPQEAMDAIVRFGELKRRFQELVQEAKANPNDLEKLKKIVEELKELTEEVREVRDELKKLLA
B10: traf2_out_11_104_638 (protein)
chain: LTREQAREFNDFAMAKEDEARAIAAALAATLAAAGETAAAARVNAALAHPGAGISTFRNLLEDLKPTLSPAAAAAADAAIAELDALQKEVSKKYNELEKE
B11: traf2_out_13_95_1107 (protein)
chain: SAETAKKIMEVADRMLEEVEALLQELLEKMKAAGKLEEEVQEALHLARYRSINEAIHKLRELAEKYPEFKEEYLATIERIEALRREAGREVAKILKEEKA
B12: traf2_out_17_178_1714 (protein)
chain: TKEEARKKISEATDKMIDLAEEAAARLLEIAEREGSLSPEELAELRRARRLGSARTTRALMERAIPRSPSAEEVQALLDEFNAEYARLSKIIAEELKKYE
B13: traf2_out_5_63_2338 (protein)
chain: SEREELTALAREADRAVRAILEALKAGKREEARKLVEEVAKDPELLRTAIGIARAELKYYSLQPEKKEEEKIAKELLKLLEEAAKRREEEERREREEALA
B14: traf2_out_1_27_1016 (protein)
chain: SDEELTELIKKTDKEIAEVSIEEAKEVVKEALKKAYELGREDAMVLARTLIASQLDEERREAITEAAVEAFKELGFPEEEIERLRRVAESSAELIRKAKA
B15: traf2_out_20_38_2035 (protein)
chain: SEEEEEEEKLEEIIEVANEAYDEYMAWIAERKAAGKTVEEIAEEAKEEVKELLSKVGLEEEAEILIEDIDRALSSPDAERLIARTLARAVALVKQKELNK
B16: traf2_out_8_144_2537 (protein)
chain: HMSRRELANELANALVELDELAKLADPETKEVLTKARRHIGQALNLVVFGGEREEIIKELEKAIEYLKEAAKLVADDPELKKRVQKVIEKVKEILKNVKE
B17: traf2_out_6_3_2518 (protein)
chain: MEESIRRDAAKVLENMGITTAEQLLRLVKANVNAVKKLVSRKDVDRADLAGAESVLNLTRAMVEVAAETLPDLTEEQKAEMLALIEEARELVEKKRKELE
B18: traf2_out_20_3_2241 (protein)
chain: SELEKELEKAFKELEKRLKELAPLLPPEDAARLKALLEEAKEAYKKDKSDALVKLSELRRALLALAERARAAGDEETAARLEEAADLANRAMQLIYKIIE
B19: traf2_out_20_3_2167 (protein)
chain: SELEEEAKEELAAALALLREAAALADPETAARLEALIAELRASESLSPSDRLVVVSRVRREVLELAQEARAAGRAELAALLEAAADELNELMQLLYQIIE
B20: traf2_out_20_3_2182 (protein)
chain: EELKKELEKELEKAEKLIKEAAKLADPETAKKLKELEKRLKESRKLSLEDQLVELSEIRRELLELAEKAKKEGKEELAKKLEEAADAINKAMNLVYKLIE
B21: traf2_out_19_138_1960 (protein)
chain: SAYQEVMDQAADVGNALRETVAALEALRAKAASGTPEEQAAAAAFTAAALAKIDAIRDERSKAVNAVLKDPSKAEEQLAKLKALLKEAEALLKEVKARLA
B22: traf2_out_18_3_1916 (protein)
chain: SEEERKKVSEEIDKIVDEATARARAALARLEAEHPAHAARAAALRADLDAGAGPFGLLEALAELAREAGDEALAAEIEAFLKKKRAEFQKLVDKYEELLK
B23: traf2_out_17_162_1583 (protein)
chain: SPLEEELAELEKELEELEKELKRLEEKSKKFKEMSKEELSDLLVEASEARRRALELAERLRELRPEIGEERATELIERAEEIAERFQKLANELYKEYLKK
B24: traf2_out_15_48_1366 (protein)
chain: DLEKYRKVASEVADRQLAKADEVAKELRKLRPEASPEVRPMLDAIIEAAEKGAPLSDLIGGLRAAAKKASPELAKKLNALAEELEAVRREASKRIAEAMK
B25: traf2_out_13_95_1088 (protein)
chain: SEELKQEINKIADEALDRVEAALAALAARLAGDPAVAAAVAAARDLARTQGISAAIHALRELAAAHPEHAEELNALIAELEAIRREAGRKVAELLKKEKE
B26: traf2_out_17_162_1603 (protein)
chain: SSLEKKKEELLKKKEELKEELKRLTEKLKNIEKLSKEELSDLLVEASEKKREALEALEKIEELKDELDPEEYEKLSTEFEELAEEFQRIANKFYKELEKK
B27: traf2_out_1_27_985 (protein)
chain: SDEEFRELLREADRKLATLSLEEKLELAREVLRRAHEMGPSDLPLAATVIAVSAKTEEEFEALLAAARETMEELGVSPEEIERILAQMRTAYRLTREALA
B28: traf2_out_11_155_683 (protein)
chain: EKERELNNELVDKVTAIADDLKAQVRAIAAEAAAARPEHAAEIEAALAAAAPYSWRTFAGTAAALFERLGLADAAARVRALLAQAQKEANKVVKEIEAKK
B29: traf2_out_1_27_1002 (protein)
chain: SDEEERELLREANRKIGEASPEEQIEIIKETLEKALKLGIESPIHIGVVLILSLGEKETREKAIKAAEEVLKKGGISEEEIELMKKRVESGWKRLEKLLK

In all, about 1,800 sequences were measured (“median log2 fold change of GCK-ALFA target abundance (FLAG IP / Myc IP barcode read proportion)”: median about 0.14, lowest 2% from about -0.84 on). This is one part of the list.

For this experiment, the target named is T1, TRAF2, Q12933. Description: median log2 fold change of GCK-ALFA target abundance (FLAG IP / Myc IP barcode read proportion) (log2 ratio); each designed protein is fused to an ALFA-tag nanobody in HEK293 cells to bring the named protein to FLAG-tagged glucokinase (GCK); Myc marks an untargeted standard; higher = target protein stabilised (more abundant). Particulars: target protein: 3xFLAG-MCP-GCK-ALFA reporter; HEK293 landing pad (RPLP). An outline of the steps: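 Sequencing of reverse-transcribed, amplified circular RNA barcodes from anti-FLAG and anti-Myc immunoprecipitates provided the readout for an ALFA-nanobody-fused binder library recombined into HEK293 landing-pad cells. Those cells were induced with 2 μg mL^−1 doxycycline, transfected with a plasmid expressing a FLAG-tagged target and a Myc-tagged standard, and lysed after 48 h. Target abundance is the per-binder median log2 ratio of FLAG to Myc barcode read proportions. Only barcodes at a proportion of ≥10^−7 in both replicates and binders with ≥3 barcodes per replicate were kept, with a 10^−6 pseudocount added before the two replicates were pooled.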
With B1, the “median log2 fold change” value is 0.0974.
Consider B2, for which the “median log2 fold change” value is -0.0794.
Then B3, with 0.156.
Turning to B4, the “median log2 fold change” value was determined as 0.177.
For the molecule B5, the “median log2 fold change” value stood at 0.571.
As to B6, the “median log2 fold change” value was -0.925.
On to B7, for which the “median log2 fold change” value stood at 0.163.
Take B8: the “median log2 fold change” value came out at 0.202.
As to B9, the “median log2 fold change” value stood at 0.299.
In the case of B10, the “median log2 fold change” value was found to be 0.206.
To B11 belongs -0.432; to B12, 0.0908.
Consider B13, for which the “median log2 fold change” value is 0.165.
Turning to B14, the “median log2 fold change” value turned out to be 0.418.
As for B15, the “median log2 fold change” value was -1.16.
On to B16, for which the “median log2 fold change” value was found to be 0.181.
On to B17, for which the “median log2 fold change” value is -0.905.
As for B18, the “median log2 fold change” value amounted to 0.215.
For the molecule B19, the “median log2 fold change” value was determined as 0.342.
Consider B20, for which the “median log2 fold change” value is 0.403.
Take B21: the “median log2 fold change” value stood at 0.184.
To B22 belongs 0.131.
As to B23, the “median log2 fold change” value turned out to be 0.152.
As to B24, the “median log2 fold change” value stood at 0.139.
To B25 belongs -0.556; to B26, 0.253; to B27, 0.166.
Regarding B28, the “median log2 fold change” value worked out at 0.118.
In the case of B29, the “median log2 fold change” value came to 0.311.

These data come from the supplement of paper PMC12632987.
